From publication PMC7819943, “Rice protein-binding microarrays: a tool to detect cis-acting elements near promoter regions in rice” come the findings set out here.

The other results are listed elsewhere or left out.

The target in the experiment is T1, OsWOX13 (Oryza sativa, UniProt Q5QMM3 1-267).
T1 sequence: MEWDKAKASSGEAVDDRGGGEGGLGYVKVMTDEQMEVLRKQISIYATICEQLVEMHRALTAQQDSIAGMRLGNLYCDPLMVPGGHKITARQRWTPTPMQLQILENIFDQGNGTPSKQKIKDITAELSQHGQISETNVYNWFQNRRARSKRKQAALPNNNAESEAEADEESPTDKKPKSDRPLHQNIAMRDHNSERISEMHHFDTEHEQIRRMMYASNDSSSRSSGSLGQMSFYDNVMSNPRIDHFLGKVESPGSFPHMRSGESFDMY
In words: protein-binding microarray (RPBM); PBS, 2% BSA, 51.3 ng/ul salmon testes DNA, 50 uM zinc acetate, 200 nM TF, 25 C, 1 h; high values mean tight binding. The note with it: protein: recombinant; tags: N-terminal polyhistidine and DsRed monomer fusion (pET32a); label: CyDye5-dUTP incorporated in the synthesized complementary strand; 3' TTTTT single-stranded linker to array surface; dsDNA, one strand shown. An outline of the steps: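 In PBS with 2% BSA, salmon testes DNA and 50 µM zinc acetate, 200 nM protein was incubated on a custom Agilent array at 25 °C for 1 h and then washed off. The array had been made double-stranded by primer extension with Cy5-dUTP and blocked with 2% BSA. The proteins were transcription factors fused N-terminally to polyhistidine and DsRed, expressed in E. coli BL21-CodonPlus and purified on Ni–NTA. The binding signal is per-feature fluorescence intensity (arbitrary units) from an Axon 4000B scanner.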
“ACGCCGATGCATGATGATTGCTGTAAATCATATACACTTCCGGAGTCACCTAGTGCAG”: the binding signal was 8580 fluorescence intensity (a.u.).

On to “CGACAAGTTAATTTGGCAGACAGCTGTGATCTTGGCTCTCCGGAGTCACCTAGTGCAG”, for which the binding signal was 8760 fluorescence intensity (a.u.).

Regarding “CTGATGATTAGATTTATCATGCTTCCGCGCTTCAAAAGGGCGGAGTCACCTAGTGCAG”, the binding signal is 53400 fluorescence intensity (a.u.).

As to “ATTATATTAATTTTATGAAAACAGTATCGGTAATGACCGGCGGAGTCACCTAGTGCAG”, the binding signal was 6110 fluorescence intensity (a.u.).

Turning to “TGCCACGGTTAGTTAGTTGATTAGTTATCTGCATGTTTACCGGAGTCACCTAGTGCAG”, the binding signal was 4580 fluorescence intensity (a.u.).

Regarding “TTCCATAATAATTGACGTTTTGAACAAGGTTGATGTCAAACGGAGTCACCTAGTGCAG”, the binding signal is 22700 fluorescence intensity (a.u.).

On to “ACGTAATTAATCCGTCATTAGTAAGTGTTTACTTAGCACCCGGAGTCACCTAGTGCAG”, for which the binding signal is 35000 fluorescence intensity (a.u.).

As for “ACCAACTTTATATATAATTTTGATAGCAATGTCTAACATACGGAGTCACCTAGTGCAG”, the binding signal is 4580 fluorescence intensity (a.u.).

For the sequence “CTTGTGATTTGTTCATGACACAACTTGACACGGTTTGGGTCGGAGTCACCTAGTGCAG”, the binding signal is 50000 fluorescence intensity (a.u.).

With “TCTAAATTTAATTAAAATCGACCGCGGCTCAATCAAAAGTCGGAGTCACCTAGTGCAG”, the binding signal was 22100 fluorescence intensity (a.u.).

As to “AGTTGATTGGGCCTCCTTTTCGTGTAACATATGGGCCTCCCGGAGTCACCTAGTGCAG”, the binding signal was 43300 fluorescence intensity (a.u.).

“TCGGCAAAATTAGCTCATGATGTACATATCAAGTTAGCATCGGAGTCACCTAGTGCAG”: the binding signal is 3930 fluorescence intensity (a.u.).

Regarding “TTTTGATATGATTGATGCCATGCTCTGAACAACAATCACCCGGAGTCACCTAGTGCAG”, the binding signal is 49200 fluorescence intensity (a.u.).

For “AACTAATAGCTCCAAATTATCTATAGCCAATGTAATAGCTCGGAGTCACCTAGTGCAG”, the binding signal is 8780 fluorescence intensity (a.u.).

Turning to “TAATAATAATATTATTTATTTCATAATTTCATGTACACATCGGAGTCACCTAGTGCAG”, the binding signal is 4050 fluorescence intensity (a.u.).

For the sequence “TTAAATTGTATTGGTTTCAAATATTATATTTAGTCTAAACCGGAGTCACCTAGTGCAG”, the binding signal was 4610 fluorescence intensity (a.u.).

“TGATGTTTCATCACTAATTTGTATTTGATAACCTGCATATCGGAGTCACCTAGTGCAG”: the binding signal was 5260 fluorescence intensity (a.u.).

Turning to “CTGTGCCAATCAGGACACCCAAATTGCCTGTCAATGCACACGGAGTCACCTAGTGCAG”, the binding signal is 22900 fluorescence intensity (a.u.).

On to “TGGATTTGTATGTCTTAATTGAAGTTAGGCTATAAATTTGCGGAGTCACCTAGTGCAG”, for which the binding signal is 10300 fluorescence intensity (a.u.).

For “CTATAATAATTTATGATGCCCACGTATATAGTGTATTTGGCGGAGTCACCTAGTGCAG”, the binding signal is 13100 fluorescence intensity (a.u.).

For the sequence “ATCAAATTATCAGACAGACAGCTTTCACACTAGGTGAGCACGGAGTCACCTAGTGCAG”, the binding signal was 29000 fluorescence intensity (a.u.).

“CGAATAATGTATTTTCCTGATTTATCTCGACCATATTCTGCGGAGTCACCTAGTGCAG”: the binding signal was 5620 fluorescence intensity (a.u.).

“TATGTCTACTAATTGTCATCAGCTAGTTAATCCGGATTTACGGAGTCACCTAGTGCAG”: the binding signal is 9090 fluorescence intensity (a.u.).

“GGCATCAAAATAAACAGACGCTGTATGTCAAATTCACATTCGGAGTCACCTAGTGCAG”: the binding signal is 3600 fluorescence intensity (a.u.).

For the sequence “ATCCAATCAACCACCAAGTCCACTACTATGATTCTTGGGCCGGAGTCACCTAGTGCAG”, the binding signal was 18100 fluorescence intensity (a.u.).

As for “CACCAATAATTAAGCTGAGCGCAAGTCTCTCGCTTACTAGCGGAGTCACCTAGTGCAG”, the binding signal was 4900 fluorescence intensity (a.u.).

Consider “GATAATAACTGTTGGGATTGCTTAGAGGAAACTTGGTAGACGGAGTCACCTAGTGCAG”, for which the binding signal is 8750 fluorescence intensity (a.u.).

As for “AACTTTGATTCTGTACAGTCAATTATGTCACAAACTAAAGCGGAGTCACCTAGTGCAG”, the binding signal is 9370 fluorescence intensity (a.u.).

For “ATAACGGGAATATAAACTATAAATTGATTGCTTGTACTATCGGAGTCACCTAGTGCAG”, the binding signal is 29900 fluorescence intensity (a.u.).

With “ATCGTTTTCTGTCCGCTTTGATTGTTATTGACCTAGCCACCGGAGTCACCTAGTGCAG”, the binding signal is 7160 fluorescence intensity (a.u.).

Regarding “TCGATATGATTGGGACGGCACAACCGTACATTGAAATTTTCGGAGTCACCTAGTGCAG”, the binding signal was 25700 fluorescence intensity (a.u.).

For the sequence “AGGTGATTTGCATCGATCTTCGAACATGGGGAAGACGCTACGGAGTCACCTAGTGCAG”, the binding signal is 23000 fluorescence intensity (a.u.).

Take “ATGAATTGGCTATTAGATCGGCTATAGATAAATTGGAGCTCGGAGTCACCTAGTGCAG”: the binding signal was 9140 fluorescence intensity (a.u.).

For the sequence “CCTAATTATGAAAAGGTATAAATGCGTGATTAGAACTATACGGAGTCACCTAGTGCAG”, the binding signal is 16500 fluorescence intensity (a.u.).

Take “CACAGCAAATTGATCTAAACAGGCCCTTATTTCACTTGCACGGAGTCACCTAGTGCAG”: the binding signal was 38300 fluorescence intensity (a.u.).

In the case of “ATTTAACATTCAATTCATACCAATAGACTTCTAGTCGATACGGAGTCACCTAGTGCAG”, the binding signal was 4550 fluorescence intensity (a.u.).

For “GTATTGATTCTAGTTTGATTGCTACAGGAATAACTAATGACGGAGTCACCTAGTGCAG”, the binding signal is 16700 fluorescence intensity (a.u.).

Regarding “GATGATTGATGGGAATATAGAGATCCCATGTTTTCCAGCTCGGAGTCACCTAGTGCAG”, the binding signal was 61000 fluorescence intensity (a.u.).

“AGTGTTGATTAAAATTTCTGATTAATTACTCTACTGTTTTCGGAGTCACCTAGTGCAG”: the binding signal is 45900 fluorescence intensity (a.u.).

Take “ACAGATTGGCCAAACTTTTGGATAGGATTAATAGAAAGTCCGGAGTCACCTAGTGCAG”: the binding signal was 27100 fluorescence intensity (a.u.).

Regarding “GTAGCAATCAAATATGGGCCGGTCAATTGTTCGCGGTAGACGGAGTCACCTAGTGCAG”, the binding signal was 4130 fluorescence intensity (a.u.).

For the sequence “CTTAATTAATCTTTGCCCAGAACGATTAGGTCCTGGAAACCGGAGTCACCTAGTGCAG”, the binding signal is 20700 fluorescence intensity (a.u.).
